From patent US12024547B2, “KLK5 inhibitory peptide” (DAIICHI SANKYO COMPANY, LIMITED, priority 2018, dated 2024)

Assays:
KLK5 = molecular target: T1, KLK5 (Homo sapiens, UniProt Q9Y337); test: KLK5 binding activity of KLK5 inhibitory peptide Fc fusion, surface plasmon resonance (Fc fusion captured, KLK5 as analyte); details: BIAcore T 200, single cycle kinetics
T1 construct: “Active KLK5” means active KLK5, which is composed of a domain having a protease activity; His tag (C); FLAG (Gly-DYKDDDDK before the His tag); made in house; host or cells: Expi293F cells
T1 sequence (Q9Y337 67-293): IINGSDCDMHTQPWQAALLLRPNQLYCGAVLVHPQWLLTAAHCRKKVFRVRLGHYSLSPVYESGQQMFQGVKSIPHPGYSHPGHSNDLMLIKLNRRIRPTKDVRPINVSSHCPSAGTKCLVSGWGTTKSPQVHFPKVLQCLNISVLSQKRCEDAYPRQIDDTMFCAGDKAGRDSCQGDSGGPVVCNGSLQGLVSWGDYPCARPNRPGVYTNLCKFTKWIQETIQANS
Method: In order to measure the binding affinity of a KLK5 inhibitory peptide Fc fusion prepared in (5-2), which will be described below, surface plasmon resonance analysis was conducted using BIAcore T 200 (GE healthcare).
The KLK5 inhibitory peptide Fc fusion was captured at a flow rate of 20 μL/min by Sensor Chip CM5 (GE healthcare) on which an anti-human IgG (Fc) antibody was immobilized to immobilize about 30 to 50 RU. Thereafter, KLK5, serially diluted 2-fold with HBS-EP (0.625 to 10 nM), was added thereto as an analyte at a flow rate of 30 μL/min. In the BIAcore T 200 Evaluation software (version 2.0), kon and koff were calculated by analysis using Single cycle kinetics in a simple one-to-one Langmuir binding model. The dissociation constant KD was calculated as a ratio of koff/kon. Further, the binding activity of KLK5 to multiple KLK5 inhibitory peptide Fc fusions was measured by regenerating Sensor Chip CM5 on which the anti-human IgG (Fc) antibody was immobilized using a Regeneration buffer attached to a Human Antibody Capture Kit (GE healthcare) and repeatedly capturing the KLK5 inhibitory peptide Fc fusion.

Crusty2 (+/+) mice = test: Suppression of transepidermal water loss (TEWL) increase in Netherton syndrome model mice; assay type: in vivo, mouse
Method: Crusty2 (+/−) mice and Crusty2 (+/+) mice were crossed by artificial insemination, and the KLK5 inhibitory peptide Fc fusion D1-K50055-Fc produced in (5-4) was evaluated using the resulting offspring (Crusty2 (+/−) mice or Crusty2 (+/+) mice). From 0 or 1 day after birth, PBS or 100 mg/kg of D1-K50055-Fc was subcutaneously administered every other day for 4 weeks. At the first administration only, a 3-fold amount of D1-K50055-Fc was administered as a loading dose. Using VAPO SCAN (AS-VT100RS, Asahi Techno Lab. Ltd.), TEWL on the skin of the back or hip of the mice was measured at 2 and 4 weeks after administration (FIG. 7). The number of Crusty2 (+/−) mice was 9, and the number of Crusty2 (+/+) mice was 12, in each of the PBS-administered group and the D1-K50055-Fc-administered group.

human KLK7 = molecular target: T2, human KLK7 (Homo sapiens, UniProt P49862); test: Human KLK7 inhibitory activity, peptide substrate degradation; assay type: biochemical; details: KLK5 inhibitory peptide Fc fusion; read-out: IC50(nM) for hKLK7
T2 construct: His tag (C); FLAG (Gly-DYKDDDDK before the His tag); made in house; host or cells: Expi293F cells
Method: (§1) The substrate peptide was dissolved in DMSO to 10 mM and diluted with an assay buffer (50 mM Tris-HCl, 150 mM NaCl, pH 8.0) for use. 25 μL each of human/mouse KLK5, human/mouse KLK7, or human/mouse KLK14 and the inhibitory peptide diluted with the assay buffer were mixed, followed by a reaction at 37° C. for 20 minutes. Thereafter, 50 μL of a substrate diluted with the assay buffer was added thereto, and the fluorescence signal was measured using Enspire (PerkinElmer). The combinations of the enzyme and the substrate used were as follows.
Evaluation of Human KLK7 inhibitory activity: hKLK7 with a final concentration of 1 μg/mL, a substrate peptide Mca-Arg-Pro-Lys-Pro-Val-Glu-Nval-Trp-Arg-Lys (Dnp)-NH2 (SEQ ID NO: 101) (R&D Systems, Inc., FIG. 85, and the amino acid sequence shown in SEQ ID NO: 77) with a final concentration of 20 μM, and a fluorescence signal with excitation at 320 nm/emission at 405 nm
(§2) The average value of three independent experiments was used to calculate the IC50 value.
(§3) According to the method described in Example 3-1, the inhibitory activities of each KLK5 inhibitory peptide Fc fusion against human/mouse KLK5, human/mouse KLK7, and human/mouse KLK14 were evaluated. […] The average value of three independent experiments was used to calculate the IC50 value.

human KLK14 = molecular target: T3, human KLK14 (Homo sapiens, UniProt Q9P0G3); test: Human KLK14 inhibitory activity, peptide substrate degradation; assay type: biochemical; details: KLK5 inhibitory peptide Fc fusion; read-out: IC50(nM) for hKLK14
T3 construct: His tag (C); FLAG (Gly-DYKDDDDK before the His tag); made in house; host or cells: Expi293F cells
T3 sequence (Q9P0G3 25-251): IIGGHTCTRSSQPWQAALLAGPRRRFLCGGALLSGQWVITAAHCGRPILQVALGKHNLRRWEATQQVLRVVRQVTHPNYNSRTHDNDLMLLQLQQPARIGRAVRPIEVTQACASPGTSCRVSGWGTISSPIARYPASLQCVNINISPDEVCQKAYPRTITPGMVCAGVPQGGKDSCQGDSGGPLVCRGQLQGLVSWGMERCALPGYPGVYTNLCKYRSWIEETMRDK
Method: as §1
Evaluation of Human KLK14 inhibitory activity: hKLK14 with a final concentration of 0.2 μg/mL, a substrate peptide Boc-Val-Pro-Arg-AMC with a final concentration of 100 μM (R&D Systems, Inc.), and a fluorescence signal with excitation at 380 nm/emission at 460 nm
as §2, §3

[1] = Crusty2 (+/+) mice, 100 mg/kg s.c. every other day, after 4 weeks, vs PBS-administered group

T2 sequence (P49862 30-253): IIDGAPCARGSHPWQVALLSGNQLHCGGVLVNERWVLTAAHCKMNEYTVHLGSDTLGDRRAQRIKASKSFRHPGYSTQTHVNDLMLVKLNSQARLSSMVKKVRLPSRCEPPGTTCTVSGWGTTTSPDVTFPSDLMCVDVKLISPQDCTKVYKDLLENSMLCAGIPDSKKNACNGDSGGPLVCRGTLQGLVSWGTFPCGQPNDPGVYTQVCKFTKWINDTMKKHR

Koff (KLK5): 1.79e-05 s⁻¹
B1: D3-K51057-Fc: KLK5/KLK7 inhibitory peptide Fc fusion, amino acid sequence SEQ ID NO: 56 (protein)
chain: DDDGPQFGLFSKYRTPNCGTMQGSGCTYHYEPVCGSDMSTYANECTLCMKIREGGHNIKIIRNGPC[gap - human IgG1 Fc]

B2: D1-K50055-Fc: KLK5 inhibitory peptide Fc fusion, amino acid sequence SEQ ID NO: 96 (protein)
chain: DGPQFGLFSKYRTPNCANTMKQDCTREYDPVCGSDMSTYANECTLCMKIREGGHNIKIIRNGPC[gap - human IgG1 Fc]
TEWL on the skin of the back (Crusty2 (+/+) mice; [1]): statistically significant decrease in TEWL
TEWL on the skin of the hip (Crusty2 (+/+) mice; [1]): statistically significant decrease in TEWL
dermatitis (Crusty2 (+/+) mice; Crusty2 mice with homo (+/+) SPINK5 mutation): improved dermatitis

IC50 (human KLK7): > 1000 nM
Koff (KLK5): 3.52e-06 s⁻¹
B3: D3-K50015-Fc: KLK5/KLK14 inhibitory peptide Fc fusion, amino acid sequence SEQ ID NO: 60 (protein)
chain: DDDGPQFGLFSKYRTPNCYDTTTHYCSREYDPVCGSDMSTYANECTLCMKIREGGHNIKIIRNGPC[gap - human IgG1 Fc]

IC50 (human KLK7): > 1000 nM
Koff (KLK5): 7.86e-06 s⁻¹
B4: D3-K51090-Fc: KLK5 inhibitory peptide Fc fusion, amino acid sequence SEQ ID NO: 46 (protein)
chain: B3 chain with Y19D, D20E, T21I, T22G, T23K, H24Y, Y25G, S27G, E29S

IC50 (human KLK14): > 1000 nM
Koff (KLK5): 1.96e-05 s⁻¹
B5: D3-K51005-Fc: KLK5/KLK7 inhibitory peptide Fc fusion, amino acid sequence SEQ ID NO: 52 (protein)
chain: B1 chain with G19M, T20Q, M21H, Q22A, G23R, S24Q, T27H, H29D, E31D

Koff (KLK5): <1e-06 s⁻¹
B6: D3-K50031-Fc: KLK5/KLK7 inhibitory peptide Fc fusion, amino acid sequence SEQ ID NO: 54 (protein)
chain: B1 chain with T20E, M21Y, Q22K, S24R, T27Y, E31D

Koff (KLK5): <1.62e-06 s⁻¹
B7: D3-K50098dN-Fc: KLK5 inhibitory peptide Fc fusion, amino acid sequence SEQ ID NO: 48 (protein)
chain: B3 chain with Y19G, D20S, T21Q, T23L, H24G, Y25S

Koff (KLK5): 1.68e-06 s⁻¹
B8: D3-K51072-Fc: KLK5 inhibitory peptide Fc fusion, amino acid sequence SEQ ID NO: 38 (protein)
chain: B3 chain with Y19Q, D20E, T21D, T22M, H24E, S27A, E29D, Y30F

Koff (KLK5): 5.69e-06 s⁻¹
B9: D3-K50032dN-Fc: KLK5 inhibitory peptide Fc fusion, amino acid sequence SEQ ID NO: 34 (protein)
chain: B3 chain with Y19L, D20Q, T21W, T23D, Y25Q, S27E, E29D

Koff (KLK5): 2.32e-06 s⁻¹
B10: D3-K50055-Fc: KLK5 inhibitory peptide Fc fusion, amino acid sequence SEQ ID NO: 36 (protein)
chain: B3 chain with Y19A, D20N, T22M, T23K, H24Q, Y25D, S27T

Koff (KLK5): 2.81e-06 s⁻¹
B11: D3-K51069dN-Fc: KLK5/KLK14 inhibitory peptide Fc fusion, amino acid sequence SEQ ID NO: 58 (protein)
chain: B3 chain with Y19G, D20Q, T21V, T22V, T23E, H24T, S27N, E29D

Koff (KLK5): 2.93e-06 s⁻¹
B12: D3-K51034-Fc: KLK5 inhibitory peptide Fc fusion, amino acid sequence SEQ ID NO: 42 (protein)
chain: B1 chain with T20R, M21Y, Q22T, G23T, S24G, T27N, Y28K, H29E

Koff (KLK5): 6.52e-06 s⁻¹
B13: D3-K50062-Fc: KLK5 inhibitory peptide Fc fusion, amino acid sequence SEQ ID NO: 44 (protein)
chain: B3 chain with Y19Q, D20Q, T21Y, T22R, T23E, H24L, Y25G, S27G, E29Q

Koff (KLK5): 1.81e-06 s⁻¹
B14: D3-K51028-Fc: KLK5/KLK7 inhibitory peptide Fc fusion, amino acid sequence SEQ ID NO: 50 (protein)
chain: B3 chain with D20Q, T21Y, T22R, T23S, H24K, Y25G, S27T, R28H

Koff (KLK5): 5.6e-06 s⁻¹
B15: D3-K50016dN-Fc: KLK5 inhibitory peptide Fc fusion, amino acid sequence SEQ ID NO: 40 (protein)
chain: B1 chain with T20Q, M21W, G23Y, G25S, T27D, Y28R, H29V, E31D

Where a chain is given by its changes, count along the chain named. Each block holds one molecule with its values, some of them ahead of it.
